# Source: article PMC4336329 (PLoS ONE, 2015)
# The campaign covered roughly 310,000 compounds. About 14,000 (4.5%) showed an effect of 50% or more. The effect is printed as a negative number. The list shows a part of the results.
# Target: human ether-à-go-go-related gene (hERG) potassium channel (human, UniProt Q12809)
# Assay: primary screen, population patch clamp on CHO cells stably expressing hERG
# 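Also: peak tail current of the secondary pulse compared with the same well before compound.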
# Sequence of human ether-à-go-go-related gene (hERG) potassium channel (Q12809 whole entry, looked up): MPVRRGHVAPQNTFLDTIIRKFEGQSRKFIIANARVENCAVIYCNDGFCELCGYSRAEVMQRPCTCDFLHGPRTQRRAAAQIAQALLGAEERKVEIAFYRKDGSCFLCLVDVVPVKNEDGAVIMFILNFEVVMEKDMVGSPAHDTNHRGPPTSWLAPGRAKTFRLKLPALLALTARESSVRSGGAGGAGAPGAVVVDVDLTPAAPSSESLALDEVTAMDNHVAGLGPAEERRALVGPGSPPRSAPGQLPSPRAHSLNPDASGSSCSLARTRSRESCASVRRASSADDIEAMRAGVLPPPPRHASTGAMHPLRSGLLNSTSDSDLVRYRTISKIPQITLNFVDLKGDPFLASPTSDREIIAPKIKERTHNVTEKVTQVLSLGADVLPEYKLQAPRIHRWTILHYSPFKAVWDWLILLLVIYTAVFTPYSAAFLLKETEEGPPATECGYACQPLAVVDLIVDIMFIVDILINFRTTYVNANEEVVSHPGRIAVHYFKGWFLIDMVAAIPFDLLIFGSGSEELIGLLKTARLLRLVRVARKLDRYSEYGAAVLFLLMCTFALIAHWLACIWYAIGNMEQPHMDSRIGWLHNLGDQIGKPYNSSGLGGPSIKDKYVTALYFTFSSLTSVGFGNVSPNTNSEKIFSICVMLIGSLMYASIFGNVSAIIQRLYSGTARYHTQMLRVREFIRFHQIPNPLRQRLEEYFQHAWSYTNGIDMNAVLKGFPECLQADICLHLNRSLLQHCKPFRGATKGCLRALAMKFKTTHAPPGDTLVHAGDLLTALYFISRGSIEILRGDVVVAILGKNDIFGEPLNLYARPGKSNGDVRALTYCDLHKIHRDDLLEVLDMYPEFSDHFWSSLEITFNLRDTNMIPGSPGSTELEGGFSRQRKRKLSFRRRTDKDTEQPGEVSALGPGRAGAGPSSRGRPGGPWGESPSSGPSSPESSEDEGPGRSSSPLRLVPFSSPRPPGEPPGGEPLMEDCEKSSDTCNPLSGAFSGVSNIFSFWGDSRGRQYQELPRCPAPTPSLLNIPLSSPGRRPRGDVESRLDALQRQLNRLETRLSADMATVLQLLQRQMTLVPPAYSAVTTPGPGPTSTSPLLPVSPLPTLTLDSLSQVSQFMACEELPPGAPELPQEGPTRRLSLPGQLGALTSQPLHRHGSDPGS
row,SMILES,"hERG current change (%, negative = inhibition) at 10uM"
1,Cc1nc(N2CCN(c3ccccc3)CC2)nc2c1C(=O)CC(C)C2 (centres unmarked),2.59%
2,CCc1ccccc1NC(=O)CCCSc1nc2ccccc2s1,2.13%
3,O=C1NC(=O)N(c2ccc3c(c2)OCO3)C(=O)/C1=C\c1ccc(-c2ccccc2C(=O)O)o1,18%
4,O=S(=O)(CCN1CCSCC1)c1ccccc1,12.9%
5,CC(=O)Nc1ccc(C(=O)OCC(=O)Nc2ccc(N3CCOCC3)cc2)cc1,18%
6,O=c1c(Cc2ccccc2)c(O)nc2n1CCCS2,8.1%
7,Cc1cccc(C)c1NC(=O)CN(C)C(=O)c1ccc(NS(=O)(=O)c2ccc3[nH]c(=O)[nH]c3c2)cc1,8.86%
8,COc1ccc(NC(=O)c2ccccc2NC(=O)CN2CCCCCC2)cc1,8.82%
9,COc1cc(-c2nc(-c3ccccc3)c(-c3cccs3)[nH]2)cc(OC)c1OC,-2.33%
10,c1cncc(Nc2c3ccccc3nc3ccccc23)c1,-30%
11,CN(CCc1cnn(C)c1)Cc1nc(CC2CC2)no1,-31.3%
12,O=C(/C=C/c1cccc([N+](=O)[O-])c1)N1CCN(c2ccccc2F)CC1,-38.9%
13,COc1cccc(CC2(CO)CCCN(Cc3cc4ccccc4[nH]3)C2)c1 (centres unmarked),-37.5%
14,CN(C)C1=NC(=O)/C(=C/c2ccc(-c3ccc(S(N)(=O)=O)cc3)o2)S1,10.8%
15,CC(=O)N1CCC2(CC1)CC(=O)c1cc(OCC(=O)N3CCN(C)CC3)ccc1O2,1.86%
16,Cc1ccc(CSc2nnc(-c3ccncc3)n2N)cc1,0.315%
17,COc1ccc(C(=O)Nc2ccnn2C2CCN(Cc3ccccn3)CC2)cc1,5.54%
18,CCn1ccnc1CN(C)C(=O)c1ccc(OC2CCN(CCc3ccccc3)CC2)cc1,-24.8%
19,O=C(/C=C/c1ccc(F)cc1)c1ccc(N2CCOCC2)cc1,6.58%
20,Cn1cnnc1SCC(=O)Nc1ccc(Br)cc1F,-7.75%
21,O=C1/C(=C/c2ccccc2)N=C(N2CCOCC2)N1c1cccc(Cl)c1,-20.2%
22,COc1cccc(CN2CCN(C(=O)c3ccco3)CC2)c1.O=C(O)C(=O)O,-0.599%
23,CN(C[C@H](Cc1ccccc1)N(C[C@H](Cc1ccccc1)N(CCc1cc(C(F)(F)F)cc(C(F)(F)F)c1)N=O)N=O)N=O.[Na+],7.96%
